The values below come from publication PMC11126606.

Protein sequences, listed by entry. Tags and fused reporters are not part of them. Lines headed by an entry give the natural chain unless they say otherwise; changes in a name come on top.
UniProt Q5VVQ6: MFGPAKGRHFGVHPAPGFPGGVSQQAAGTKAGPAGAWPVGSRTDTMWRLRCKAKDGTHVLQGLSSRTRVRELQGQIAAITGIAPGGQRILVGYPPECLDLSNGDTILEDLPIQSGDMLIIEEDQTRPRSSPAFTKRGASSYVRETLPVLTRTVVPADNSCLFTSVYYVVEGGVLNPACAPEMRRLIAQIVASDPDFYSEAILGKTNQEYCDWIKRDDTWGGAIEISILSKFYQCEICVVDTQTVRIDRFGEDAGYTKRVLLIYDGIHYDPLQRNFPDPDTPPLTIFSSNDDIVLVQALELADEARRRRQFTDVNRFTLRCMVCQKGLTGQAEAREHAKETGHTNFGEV
UniProt Q9ULZ3: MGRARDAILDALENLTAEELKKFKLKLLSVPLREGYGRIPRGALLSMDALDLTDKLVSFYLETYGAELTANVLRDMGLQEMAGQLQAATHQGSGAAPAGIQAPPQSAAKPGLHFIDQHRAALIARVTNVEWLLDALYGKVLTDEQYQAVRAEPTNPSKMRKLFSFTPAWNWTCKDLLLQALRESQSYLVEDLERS
UniProt P29466: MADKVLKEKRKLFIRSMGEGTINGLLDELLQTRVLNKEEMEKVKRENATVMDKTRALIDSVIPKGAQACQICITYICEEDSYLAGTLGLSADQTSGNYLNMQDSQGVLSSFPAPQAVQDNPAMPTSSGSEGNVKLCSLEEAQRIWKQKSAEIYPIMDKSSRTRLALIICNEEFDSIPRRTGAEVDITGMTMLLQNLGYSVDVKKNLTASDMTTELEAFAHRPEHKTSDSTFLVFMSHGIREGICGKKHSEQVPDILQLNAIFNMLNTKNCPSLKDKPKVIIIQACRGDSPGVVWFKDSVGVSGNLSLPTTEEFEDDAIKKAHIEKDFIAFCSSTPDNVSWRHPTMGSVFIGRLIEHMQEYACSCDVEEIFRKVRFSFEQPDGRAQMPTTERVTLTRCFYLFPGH
UniProt Q96P20: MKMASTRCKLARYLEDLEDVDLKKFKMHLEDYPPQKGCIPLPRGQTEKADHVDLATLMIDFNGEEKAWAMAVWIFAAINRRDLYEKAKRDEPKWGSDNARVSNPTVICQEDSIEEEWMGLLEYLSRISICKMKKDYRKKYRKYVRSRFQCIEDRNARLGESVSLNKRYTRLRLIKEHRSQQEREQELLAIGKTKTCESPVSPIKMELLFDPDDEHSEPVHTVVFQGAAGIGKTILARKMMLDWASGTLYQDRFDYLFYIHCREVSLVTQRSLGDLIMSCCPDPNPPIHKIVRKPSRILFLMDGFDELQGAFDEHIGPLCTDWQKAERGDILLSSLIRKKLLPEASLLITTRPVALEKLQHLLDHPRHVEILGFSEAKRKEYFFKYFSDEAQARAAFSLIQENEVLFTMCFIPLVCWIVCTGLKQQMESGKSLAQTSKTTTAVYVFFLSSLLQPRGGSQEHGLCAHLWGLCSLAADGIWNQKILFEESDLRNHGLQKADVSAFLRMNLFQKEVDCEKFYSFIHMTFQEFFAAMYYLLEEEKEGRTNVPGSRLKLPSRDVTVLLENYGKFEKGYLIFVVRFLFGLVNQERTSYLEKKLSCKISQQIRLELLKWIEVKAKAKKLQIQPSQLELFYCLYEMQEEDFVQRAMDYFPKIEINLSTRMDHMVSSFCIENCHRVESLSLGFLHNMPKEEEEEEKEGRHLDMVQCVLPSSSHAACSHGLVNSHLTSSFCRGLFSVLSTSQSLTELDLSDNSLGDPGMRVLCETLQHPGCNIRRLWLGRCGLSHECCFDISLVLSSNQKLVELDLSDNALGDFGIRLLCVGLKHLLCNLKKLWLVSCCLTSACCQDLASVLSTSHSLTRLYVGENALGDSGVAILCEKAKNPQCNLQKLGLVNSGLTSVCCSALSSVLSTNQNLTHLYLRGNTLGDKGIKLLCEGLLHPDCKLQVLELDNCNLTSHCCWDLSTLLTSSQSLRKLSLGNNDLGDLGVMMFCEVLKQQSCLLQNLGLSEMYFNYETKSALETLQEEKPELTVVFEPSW
UniProt Q8R4B8: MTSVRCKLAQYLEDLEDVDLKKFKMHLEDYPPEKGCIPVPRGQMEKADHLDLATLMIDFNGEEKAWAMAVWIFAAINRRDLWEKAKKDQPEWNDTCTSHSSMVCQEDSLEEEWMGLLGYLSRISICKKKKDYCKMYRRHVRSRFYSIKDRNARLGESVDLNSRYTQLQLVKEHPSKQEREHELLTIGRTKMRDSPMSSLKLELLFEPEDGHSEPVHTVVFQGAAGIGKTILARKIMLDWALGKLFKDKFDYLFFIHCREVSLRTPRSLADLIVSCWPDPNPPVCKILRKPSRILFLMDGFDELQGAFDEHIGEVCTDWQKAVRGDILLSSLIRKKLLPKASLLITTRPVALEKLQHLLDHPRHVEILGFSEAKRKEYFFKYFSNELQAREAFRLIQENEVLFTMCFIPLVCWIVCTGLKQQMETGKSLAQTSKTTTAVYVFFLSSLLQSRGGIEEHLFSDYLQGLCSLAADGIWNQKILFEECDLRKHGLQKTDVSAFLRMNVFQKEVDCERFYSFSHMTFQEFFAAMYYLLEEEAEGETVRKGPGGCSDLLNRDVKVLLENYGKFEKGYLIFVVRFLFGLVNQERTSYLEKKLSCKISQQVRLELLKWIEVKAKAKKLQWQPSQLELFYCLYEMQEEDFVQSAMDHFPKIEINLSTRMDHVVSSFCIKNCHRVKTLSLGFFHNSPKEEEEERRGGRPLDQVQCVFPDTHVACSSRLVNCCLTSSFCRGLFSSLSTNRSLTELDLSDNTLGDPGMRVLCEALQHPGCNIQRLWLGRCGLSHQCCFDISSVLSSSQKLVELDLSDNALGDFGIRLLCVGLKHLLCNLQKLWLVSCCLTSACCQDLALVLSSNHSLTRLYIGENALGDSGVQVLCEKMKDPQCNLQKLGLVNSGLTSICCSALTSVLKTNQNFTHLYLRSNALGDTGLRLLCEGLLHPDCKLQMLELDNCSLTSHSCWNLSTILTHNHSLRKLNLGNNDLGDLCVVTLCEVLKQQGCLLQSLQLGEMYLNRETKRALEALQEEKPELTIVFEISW

Results are given in words; binding and its absence hold for the method and conditions named. In cells and extracts the contact can be indirect. Some results given as binding are weak or reduced against the parent protein; the word gives no strength.

Assay [1] has as its target Myc-tagged human YOD1, full length (human) (UniProt Q5VVQ6). The experiment in a line: co-IP; HEK293T cells co-transfected, 24 h; lysates in IP buffer (20 mM Tris, 0.5% Triton X-100, 10% glycerol, 150 mM NaCl, 20 mM MgCl2, 1 mM EDTA, pH 7.5); IP with anti-Myc, blot with anti-Flag.
The target in assay [2] is Myc-tagged human YOD1 C160S, catalytically inactive (human) (UniProt Q5VVQ6). Described as above.
Assay [3] concerns the target T1, YOD1, endogenous mouse (mouse (endogenous in BMDMs and PMs)) (UniProt Q8CB27).
T1 sequence: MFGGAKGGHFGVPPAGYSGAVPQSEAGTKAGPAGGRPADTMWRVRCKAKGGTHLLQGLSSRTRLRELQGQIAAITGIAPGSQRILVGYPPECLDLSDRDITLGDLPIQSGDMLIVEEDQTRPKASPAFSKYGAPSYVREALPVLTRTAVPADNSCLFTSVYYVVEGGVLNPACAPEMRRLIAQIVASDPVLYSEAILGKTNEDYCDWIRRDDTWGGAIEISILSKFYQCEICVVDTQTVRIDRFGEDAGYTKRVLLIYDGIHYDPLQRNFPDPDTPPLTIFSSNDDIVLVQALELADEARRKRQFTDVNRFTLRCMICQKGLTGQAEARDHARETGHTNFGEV
The experiment in a line: co-IP; endogenous proteins in mouse BMDMs or PMs infected with MRSA for 4 h; specific antibodies and protein G plus-agarose, IP buffer.

With “Flag-tagged human ASC (apoptosis-associated speck like protein containing a CARD) (from UniProt Q9ULZ3 1-195)”, in assay [1], the binding entry is reported as “no binding”.

With “Flag-tagged human Caspase-1 (from UniProt P29466 1-404) (enzyme)”, the binding result in assay [1] is listed as “no binding”. In the case of “Flag-tagged human NLRP3, full length (from UniProt Q96P20 1-1036)”, the binding entry in assay [2] and in assay [1] was “binds” in each case. As to “NLR-family pyrin domain-containing-3 (NLRP3), endogenous mouse (from UniProt Q8R4B8 1-1033)”, the binding entry in assay [3] is listed as “binds”.
